Some of the results follow. Repeats are few or missing, and single values can be far off.
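Also: cell number obtained by counting DAPI-stained nuclei in high-throughput microscope images with image analysis software, screen run in 1,536-well plates.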

The test has as its system G361. The test can be described thus: cell count relative to DMSO control; melanoma cells; higher = more viable cells. Particulars: library dose: low library concentration; 72 h.
Regarding `COc1cc([C@@H]2c3cc4c(cc3[C@@H](O[C@@H]3O[C@@H]5CO[C@@H](C)O[C@H]5[C@H](O)[C@H]3O)[C@H]3COC(=O)[C@H]23)OCO4)cc(OC)c1O` [etoposide] + O=c1[nH]nc(Sc2ncc([N+](=O)[O-])s2)n1-c1ccc2c(c1)OCCO2 [BI78D3] (first compound 0.02 µM, partner dose 0.2 µM), the cell count was determined as 111%.
To `Cn1cnc2c(F)c(Nc3ccc(Br)cc3Cl)c(C(=O)NOCCO)cc21` [selumetinib] + Nc1nc(F)nc2c1ncn2[C@@H]1O[C@H](CO)[C@@H](O)[C@@H]1O [fludarabine] (first compound 0.015 µM, partner dose 0.2 µM) belongs 105%.
To `Cn1cnc2c(F)c(Nc3ccc(Br)cc3Cl)c(C(=O)NOCCO)cc21` [selumetinib] + Clc1ccc(Nc2nnc(Cc3ccncc3)c3ccccc23)cc1 [vatalanib] (first compound 0.015 µM, partner dose 2 µM) belongs 84.3%; to `CCN(CC)CCNC(=O)c1c(C)[nH]c(/C=C2\C(=O)Nc3ccc(F)cc32)c1C` [sunitinib] + O=C(O)c1ccc2c(c1)nc(Nc1cccc(Cl)c1)c1ccncc12 [CX4945] (first compound 0.4 µM, partner dose 0.4 µM), 103%; to `C[C@]1(O)C[C@@H](c2nc(-c3ccc4ccc(-c5ccccc5)nc4c3)c3c(N)nccn32)C1` + NC1(c2ccc(-c3nc4ccn5c(=O)[nH]nc5c4cc3-c3ccccc3)cc2)CCC1 [MK2206] (first compound 0.4 µM, partner dose 0.4 µM), 101%.
To `C[C@]1(O)C[C@@H](c2nc(-c3ccc4ccc(-c5ccccc5)nc4c3)c3c(N)nccn32)C1` + CCCS(=O)(=O)Nc1ccc(F)c(C(=O)c2c[nH]c3ncc(Cl)cc23)c1F [PLX4720] (first compound 0.4 µM, partner dose 0.08 µM) belongs 54.4%; to `C[C@]1(O)C[C@@H](c2nc(-c3ccc4ccc(-c5ccccc5)nc4c3)c3c(N)nccn32)C1` + C[C@]1(c2nc3c(C(N)=O)cccc3[nH]2)CCCN1 [Veliparib] (first compound 0.4 µM, partner dose 1.4 µM), 83.2%.
Regarding `COc1cc([C@@H]2c3cc4c(cc3[C@@H](O[C@@H]3O[C@@H]5CO[C@@H](C)O[C@H]5[C@H](O)[C@H]3O)[C@H]3COC(=O)[C@H]23)OCO4)cc(OC)c1O` [etoposide] + CN(c1ncccc1CNc1nc(Nc2ccc3c(c2)CC(=O)N3)ncc1C(F)(F)F)S(C)(=O)=O [PF562271] (first compound 0.02 µM, partner dose 0.08 µM), the cell count stood at 81%.
To `C[C@]1(O)C[C@@H](c2nc(-c3ccc4ccc(-c5ccccc5)nc4c3)c3c(N)nccn32)C1` + Clc1ccc(Nc2nnc(Cc3ccncc3)c3ccccc23)cc1 [vatalanib] (first compound 0.4 µM, partner dose 2 µM) belongs 85.3%; to `COc1cc([C@@H]2c3cc4c(cc3[C@@H](O[C@@H]3O[C@@H]5CO[C@@H](C)O[C@H]5[C@H](O)[C@H]3O)[C@H]3COC(=O)[C@H]23)OCO4)cc(OC)c1O` [etoposide] + O=C(O)[C@@H]1[O][Sb](=[O])([O][Sb]2(=[O])[O][C@H]([C@H](O)CO)[C@H](O)[C@H](C(=O)O)[O]2)[O][C@H]([C@H](O)CO)[C@@H]1O [stibogluconate] (first compound 0.02 µM, partner dose 2 µM), 89.4%.
With `CCN(CC)CCNC(=O)c1c(C)[nH]c(/C=C2\C(=O)Nc3ccc(F)cc32)c1C` [sunitinib] + Cn1c(Nc2ccc(C(F)(F)F)cc2)nc2cc(Oc3ccnc(-c4ncc(C(F)(F)F)[nH]4)c3)ccc21 [CHIR265] (first compound 0.4 µM, partner dose 0.08 µM), the cell count came to 64.4%.
With `CCN(CC)CCNC(=O)c1c(C)[nH]c(/C=C2\C(=O)Nc3ccc(F)cc32)c1C` [sunitinib] + CNC(=O)c1cc(Oc2ccc(NC(=O)Nc3ccc(Cl)c(C(F)(F)F)c3)cc2)ccn1 [sorafenib] (first compound 0.4 µM, partner dose 0.4 µM), the cell count worked out at 98.6%.
For `C[C@]1(O)C[C@@H](c2nc(-c3ccc4ccc(-c5ccccc5)nc4c3)c3c(N)nccn32)C1` + C=C(c1ccc(C(=O)O)cc1)c1cc2c(cc1C)C(C)(C)CCC2(C)C [Bexarotene] (first compound 0.4 µM, partner dose 2 µM) the value was 80.5%; for `CCN(CC)CCNC(=O)c1c(C)[nH]c(/C=C2\C(=O)Nc3ccc(F)cc32)c1C` [sunitinib] + CN(c1ncccc1CNc1nc(Nc2ccc3c(c2)CC(=O)N3)ncc1C(F)(F)F)S(C)(=O)=O [PF562271] (first compound 0.4 µM, partner dose 0.08 µM), 95.6%; for `CCN(CC)CCNC(=O)c1c(C)[nH]c(/C=C2\C(=O)Nc3ccc(F)cc32)c1C` [sunitinib] + NC1(c2ccc(-c3nc4ccn5c(=O)[nH]nc5c4cc3-c3ccccc3)cc2)CCC1 [MK2206] (first compound 0.4 µM, partner dose 0.4 µM), 102%.
Molecule `Cn1cnc2c(F)c(Nc3ccc(Br)cc3Cl)c(C(=O)NOCCO)cc21` [selumetinib] + CNC(=O)c1cc(Oc2ccc(NC(=O)Nc3ccc(Cl)c(C(F)(F)F)c3)cc2)ccn1 [sorafenib] (first compound 0.015 µM, partner dose 0.4 µM) gave a cell count of 104%.
For `Cn1cnc2c(F)c(Nc3ccc(Br)cc3Cl)c(C(=O)NOCCO)cc21` [selumetinib] + Cc1cc(Nc2cc(N3CCN(C)CC3)nc(/C=C/c3ccccc3)n2)n[nH]1 [ENMD2076] (first compound 0.015 µM, partner dose 0.04 µM) the value was 99%; for `COc1cc([C@@H]2c3cc4c(cc3[C@@H](O[C@@H]3O[C@@H]5CO[C@@H](C)O[C@H]5[C@H](O)[C@H]3O)[C@H]3COC(=O)[C@H]23)OCO4)cc(OC)c1O` [etoposide] + Nc1nc(F)nc2c1ncn2[C@@H]1O[C@H](CO)[C@@H](O)[C@@H]1O [fludarabine] (first compound 0.02 µM, partner dose 0.2 µM), 90.5%.
To `COc1cc([C@@H]2c3cc4c(cc3[C@@H](O[C@@H]3O[C@@H]5CO[C@@H](C)O[C@H]5[C@H](O)[C@H]3O)[C@H]3COC(=O)[C@H]23)OCO4)cc(OC)c1O` [etoposide] + Cn1sc(=O)n(Cc2ccccc2)c1=O [TDZD-8] (first compound 0.02 µM, partner dose 0.4 µM) belongs 71.6%; to `Cn1cnc2c(F)c(Nc3ccc(Br)cc3Cl)c(C(=O)NOCCO)cc21` [selumetinib] + CO[C@H]1C[C@@H]2CC[C@@H](C)[C@@](O)(O2)C(=O)C(=O)N2CCCC[C@H]2C(=O)O[C@H]([C@H](C)C[C@@H]2CC[C@@H](OCCO)[C@H](OC)C2)CC(=O)[C@H](C)/C=C(\C)[C@@H](O)[C@@H](OC)C(=O)[C@H](C)C[C@H](C)/C=C/C=C/C=C/1C [everolimus] (first compound 0.015 µM, partner dose 0.02 µM), 52.3%.
On to `Cn1cnc2c(F)c(Nc3ccc(Br)cc3Cl)c(C(=O)NOCCO)cc21` [selumetinib] + COc1ccc(C2=N[C@@H](c3ccc(Cl)cc3)[C@@H](c3ccc(Cl)cc3)N2C(=O)N2CCNC(=O)C2)c(OC(C)C)c1 [Nutlin-3] (first compound 0.015 µM, partner dose 0.1 µM), for which the cell count worked out at 87.7%.
With `C[C@]1(O)C[C@@H](c2nc(-c3ccc4ccc(-c5ccccc5)nc4c3)c3c(N)nccn32)C1` + CN(c1ncccc1CNc1nc(Nc2ccc3c(c2)CC(=O)N3)ncc1C(F)(F)F)S(C)(=O)=O [PF562271] (first compound 0.4 µM, partner dose 0.08 µM), the cell count was 80.4%.
`CCN(CC)CCNC(=O)c1c(C)[nH]c(/C=C2\C(=O)Nc3ccc(F)cc32)c1C` [sunitinib] + CC(=O)c1c(C)c2cnc(Nc3ccc(N4CCNCC4)cn3)nc2n(C2CCCC2)c1=O [palbociclib] (first compound 0.4 µM, partner dose 0.04 µM): the cell count turned out to be 109%.
Turning to `C[C@]1(O)C[C@@H](c2nc(-c3ccc4ccc(-c5ccccc5)nc4c3)c3c(N)nccn32)C1` + CNC(=O)c1cc(Oc2ccc(NC(=O)Nc3ccc(Cl)c(C(F)(F)F)c3)cc2)ccn1 [sorafenib] (first compound 0.4 µM, partner dose 0.4 µM), the cell count came to 89.2%.
`Cn1cnc2c(F)c(Nc3ccc(Br)cc3Cl)c(C(=O)NOCCO)cc21` [selumetinib] + COc1ccc(Cl)c(Nc2nc3ccccc3nc2NS(=O)(=O)c2cccc(NC(=O)C(C)(C)N)c2)c1 [XL147] (first compound 0.015 µM, partner dose 0.8 µM) displayed a cell count of 82.9%.
In turn, `Cn1cnc2c(F)c(Nc3ccc(Br)cc3Cl)c(C(=O)NOCCO)cc21` [selumetinib] + CN(c1ncccc1CNc1nc(Nc2ccc3c(c2)CC(=O)N3)ncc1C(F)(F)F)S(C)(=O)=O [PF562271] (first compound 0.015 µM, partner dose 0.08 µM) showed a cell count of 82.4%.
To `C[C@]1(O)C[C@@H](c2nc(-c3ccc4ccc(-c5ccccc5)nc4c3)c3c(N)nccn32)C1` + CCCCCCCCc1ccc(CCC(N)(CO)CO)cc1 [fingolimod] (first compound 0.4 µM, partner dose 2 µM) belongs 84.4%.
